From PubChem BioAssay AID1508621 (National Center for Advancing Translational Sciences (NCATS), 2021)
Inconclusive results, whose numbers are uncertain, are shown with a selection of clear calls. Potencies beside an inconclusive call are fits to weak or partial responses and may not hold up. The source made the active and inactive calls. The call rests on the fitted dose curve; in most records, active means well fitted inhibition curve with a large enough effect; inconclusive means small, poorly fitted or top-dose-only effect; inactive means no such curve, though single readings can be large or run the other way.

experiment: Confirmatory qHTS for Identification of Small Molecule Inhibitors of Huntingtin Promoter Activity; conditions: HEK293 HTT promoter firefly luciferase reporter, 24 h; series mostly up to 57.5 µM; activity change, negative = inhibition: at the top concentration; further: nearly all actives have a fitted effect of over 65% in size;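 on activity change, negative = inhibition: 0% = vehicle control and -100% = zero luminescence signal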
Procedure, shortened: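 2,500 luciferase reporter HEK293 cells/well; 24 h culture; cpds up to 57.5 uM final, PTC124 50 uM ctrl; 24 h, 37C; Dual-Glo FLuc reagent, 10 min RT; lum. Norm.: vehicle 0%, zero RLU -100%.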
Potency means the concentration at half of the fitted maximal effect; tags describe the fitted curve by direction and shape.

Structure (SMILES)	activity change, negative = inhibition	Potency
Cc1ccc(S(=O)(=O)n2nc(-c3ccccc3)nc2NCc2ccccc2Cl)cc1	inactive: -5.17%	
Cc1cc(C)cc(NC(=O)CCCn2c3ccccc3c(=O)c3ccccc32)c1		inconclusive: 16.9 µM [inhibitor, partial curve]
CCOc1ccc(CCNC(=O)C(CC(C)C)N2Cc3ccccc3C2=O)cc1OCC (stereo not given)		inconclusive: 23.9 µM [inhibitor, single point]
Cc1ccc(-c2cc(N)n(Cc3cccc(Cl)c3)n2)cc1		inconclusive: 15.1 µM [inhibitor, partial curve, poor fit]
COc1ccc(NC(=O)CSc2nc(-c3cccs3)cc(C(F)(F)F)n2)cc1OC		inconclusive: 2.69 µM [inhibitor, partial curve]
Cn1cnc(S(=O)(=O)N2CCC(C(=O)Nc3ccc(Cl)c(C(F)(F)F)c3)CC2)c1		inconclusive: 26.9 µM [inhibitor, partial curve]
Cc1ccc(-n2ncc3c(N(C)Cc4ccccc4)ncnc32)cc1	inactive: -34.3%	
CCOc1ccccc1CNC(=O)c1ccc(NC(=O)N2CCSc3ncccc32)cc1		inconclusive: 26.9 µM [inhibitor, partial curve]
CCSc1ncc(Cl)c(C(=O)Nc2ccc(S(=O)(=O)N3CCC(C)CC3)cc2)n1		inconclusive: 12 µM [inhibitor, partial curve]
COc1cccc(N2CCN(C(=O)c3ccc4nc(N5CCC(C)CC5)sc4c3)CC2)c1		active: 8.49 µM
COc1cc(NS(=O)(=O)c2ccc3c(c2)CCCN3C(C)=O)cc(OC)c1OC		inconclusive: 10.7 µM [inhibitor, partial curve]
COc1cc(OC)c(OC)cc1/C=C/c1nc2cc3ccccc3cc2c(=O)n1-c1ccc(F)c(Cl)c1	inactive: -22.1%	
COC[C@H](NC(=O)c1cnc(C)s1)C(=O)N[C@@H](COC)C(=O)N[C@@H](Cc1ccccc1)C(=O)[C@@]1(C)CO1		active: 0.301 µM
CN(C)Cc1ccc(-c2nc3cccc4c3n2CCNC4=O)cc1	inactive: -26.9%	
COc1ccc(S(=O)(=O)N2CCC(C(=O)Nc3ccc(Oc4ccccc4)cc3)CC2)cc1OC		inconclusive: 3.79 µM [inhibitor, partial curve, poor fit]
CCOc1ccc(C(=O)NCc2ccc3c(c2)CCN3C(=O)c2ccccc2)cc1	inactive: -16.2%	
O=C(c1ccc2c(c1)CCN2S(=O)(=O)c1ccc(Cl)cc1)N1CCN(c2ccccc2F)CC1		inconclusive: 26.9 µM [inhibitor, partial curve]
C1=CCOCc2cc(ccc2OCCN2CCCC2)Nc2nccc(n2)-c2cccc(c2)OCC1		active: 9.53 µM
COc1ccc(OC)c(CNS(=O)(=O)c2ccc3[nH]c4c(c3c2)CCCCC4)c1		inconclusive: 16.9 µM [inhibitor, partial curve]
Cc1nnc(N2CCN(c3cccc(C(F)(F)F)c3)CC2)c2c1nnn2Cc1ccccc1		inconclusive: 19 µM [inhibitor, partial curve, poor fit]

Structure (SMILES)	activity change, negative = inhibition	Potency
COc1cccc(-c2cn3c(n2)sc2cc(C(=O)NCc4cccs4)ccc23)c1	inactive: 40.6%	
O=c1c(-c2ccc(O)cc2)coc2cc(O)ccc12	inactive: 50.9%	
CCOC(=O)c1cc(-c2ccc(F)cc2)n(CCC(=O)NCCc2ccc(C)cc2)c1C		inconclusive: 21.3 µM [inhibitor, partial curve]
CCN(CC)S(=O)(=O)c1ccc(NC(=O)CCc2c(C)nc3cc(-c4ccc(Cl)cc4)nn3c2C)cc1		active: 0.301 µM
Cc1ccccc1NC(=O)c1c(NC(=O)C(F)(F)F)sc2c1CCCCC2		active: 0.849 µM
CCCCOc1ccc(C(=O)Nc2ccc3c(c2)CCCN3C(=O)c2cccs2)cc1		inconclusive: 9.53 µM [inhibitor, partial curve]
COc1ccccc1CNS(=O)(=O)c1ccc2c(c1)CC(C)N2C(=O)C1CCC1 (stereo not given)		inconclusive: 12 µM [inhibitor, partial curve]
O=C(CN1C(=O)C2(SCC(=O)N2c2ccc(F)c(F)c2)c2ccccc21)Nc1cccc(Cl)c1 (stereo not given)		inconclusive: 30.1 µM [inhibitor, single point]
O=C(Cn1cc(SCc2ccccc2F)c2ccccc21)N1CCCC1	inactive: 38.7%	
Cc1ccc(N2CCN(C(=O)c3nn(C)c4c3CS(=O)(=O)c3ccccc3-4)CC2)c(C)c1		inconclusive: 23.9 µM [inhibitor, partial curve]
Cc1ccc(C)c(NC(=O)C(=O)NCC(c2cccnc2)N2CCN(c3ccc(F)cc3)CC2)c1 (stereo not given)		inconclusive: 19 µM [inhibitor, partial curve]
Cc1cc(Nc2cccc(C(F)(F)F)c2)nc2ccc(NC(=O)c3cccnc3)cc12		active: 19 µM
O=C(CCCCCCC(=O)Nc1ccccc1)NO		inactive
Cc1cccc(NC(=O)c2ccc(F)c(S(=O)(=O)N(C)C3CCCCC3)c2)c1		inconclusive: 12 µM [inhibitor, partial curve]
COc1ccccc1CCNC(=O)c1ccc(-c2nc(CSc3ccc(C)cc3)c(C)o2)cc1		inconclusive: 12 µM [inhibitor, partial curve]
Cc1ccc(C)c(N2CCN(C(=O)C3CCN(c4nc(-c5ccc(C(C)C)cc5)no4)CC3)CC2)c1		active: 0.239 µM
CN(C)S(=O)(=O)c1ccc(C(=O)NCCSc2c(-c3ccc(Cl)cc3)[nH]c3ccccc23)cc1		inconclusive: 13.5 µM [inhibitor, partial curve]
O=C(NCc1cccc(Cl)c1)C1CCCN(c2nn3cc(-c4ccc(F)cc4)nc3s2)C1 (stereo not given)		active: 12 µM
Cn1c(NCCN(CCO)CCCc2ccc([N+](=O)[O-])cc2)cc(=O)n(C)c1=O	inactive: -2.78%	
Cc1cc(NC(=O)CCc2nc3cccnc3n2-c2ccccc2)ccc1Br		inconclusive: 21.3 µM [inhibitor, single point]
